{"source": "paper PMC6919601", "about": "“Identification of Plasmodium dipeptidyl aminopeptidase allosteric inhibitors by high throughput screening” (PLoS ONE, 2019)", "note": "About 230 (0.21%) of roughly 110,000 compounds showed an effect of 50% or more. The list shows a part of the results."}
{"biological_target": "DPAP1 (Plasmodium falciparum, UniProt Q8IIJ9)", "sequence (Q8IIJ9 whole entry, looked up)": "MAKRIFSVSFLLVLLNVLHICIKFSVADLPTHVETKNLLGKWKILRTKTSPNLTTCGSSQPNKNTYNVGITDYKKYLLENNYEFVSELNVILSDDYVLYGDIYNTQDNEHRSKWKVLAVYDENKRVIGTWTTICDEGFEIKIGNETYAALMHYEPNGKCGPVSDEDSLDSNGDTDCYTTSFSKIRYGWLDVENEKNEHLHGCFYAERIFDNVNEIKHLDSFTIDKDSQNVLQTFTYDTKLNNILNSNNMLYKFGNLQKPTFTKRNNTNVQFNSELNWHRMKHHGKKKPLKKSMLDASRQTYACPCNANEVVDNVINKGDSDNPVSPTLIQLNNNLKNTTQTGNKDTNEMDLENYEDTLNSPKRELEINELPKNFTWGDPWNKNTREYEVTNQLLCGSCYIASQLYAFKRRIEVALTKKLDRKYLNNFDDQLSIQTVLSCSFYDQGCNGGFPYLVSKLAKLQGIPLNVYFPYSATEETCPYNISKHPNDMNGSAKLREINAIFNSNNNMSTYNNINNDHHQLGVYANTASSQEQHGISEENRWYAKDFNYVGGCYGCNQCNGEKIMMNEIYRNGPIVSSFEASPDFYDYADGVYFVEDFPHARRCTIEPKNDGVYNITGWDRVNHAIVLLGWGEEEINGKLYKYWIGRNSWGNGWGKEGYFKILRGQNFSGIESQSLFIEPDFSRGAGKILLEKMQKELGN", "assay": "primary screen, percent inhibition; read by cleavage of a fluorogenic dipeptide substrate; higher = more effect of the substance", "parameters": "species or system P. falciparum D10 trophozoite lysates; single well", "units": {"% Inhibition @ 10 uM": "%"}}
{"compound": "O=C(CN1CCN(Cc2ccc(Cl)cc2)C1=O)NCC1COc2ccccc2O1", "note": "(centres unmarked);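 note: 30 min substrate incubation versus DMSO and 10 µM JCP410 controls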", "% Inhibition @ 10 uM": -2.12}
{"compound": "Cc1c(Cl)cccc1N1C(=O)CC(C2CCCO2)C1=O", "note": "(centres unmarked)", "% Inhibition @ 10 uM": -3.09}
{"compound": "O=C(NC12CC3CC(CC(C3)C1)C2)c1c(O)nc2c(c1O)CCCC2", "% Inhibition @ 10 uM": 5.85}
{"compound": "COc1ccccc1CNC(=O)c1cc2c(s1)CS(=O)(=O)C2", "% Inhibition @ 10 uM": -1.69}
{"compound": "O=S(=O)(O)c1nnc2sc3ccccc3n12", "% Inhibition @ 10 uM": 2.9}
{"compound": "OCCNc1nc(N2CCOCC2)nc(N2CCOCC2)n1", "% Inhibition @ 10 uM": 2.58}
{"compound": "CCOc1ccc2nc(SC3CC(=O)N(c4ccc(OC)cc4)C3=O)nc(C)c2c1", "note": "(centres unmarked)", "% Inhibition @ 10 uM": -0.68}
{"compound": "COc1ccc(N2CCN(Cc3ccc(O)cc3)CC2)cc1", "% Inhibition @ 10 uM": 2.23}
{"compound": "Cc1cccc(NC(=O)c2ccco2)c1C", "% Inhibition @ 10 uM": -4.12}
{"compound": "CCOc1ccc(CCNC(=O)CS(=O)(=O)Cc2nc(-c3ccc(C)cc3)oc2C)cc1", "% Inhibition @ 10 uM": -0.138}
{"compound": "CC(C)CCNC(=O)C1CCN(S(=O)(=O)N2CCCCC2)CC1", "% Inhibition @ 10 uM": 0.387}
{"compound": "CC(C)=CCC[C@H](C)CCN(CC(C)O)CC(C)O", "note": "(some centres unmarked)", "% Inhibition @ 10 uM": -3.72}
{"compound": "CCn1c(C(=O)O)c(CNCc2cccs2)c2ccc(C)cc21", "% Inhibition @ 10 uM": -0.118}
{"compound": "CC(=O)c1ccc(NC(=O)CSc2nc(N)cc(N)n2)cc1", "% Inhibition @ 10 uM": 3.36}
{"compound": "CC(=O)Nc1ccc(NC(=O)c2cccs2)cc1", "% Inhibition @ 10 uM": -0.68}
{"compound": "C=CCn1c(C(C)NC(=O)COC)nc2ccccc21", "note": "(centres unmarked)", "% Inhibition @ 10 uM": -3.48}
{"compound": "O=C1NC(c2ccccc2)=N/C1=C/c1ccco1", "% Inhibition @ 10 uM": 12.2}
{"compound": "C=CCOc1ccc(/C=C2/SC(=O)N(C(C)C)C2=O)cc1", "% Inhibition @ 10 uM": -1.6}
{"compound": "Cc1nc(CC(=O)Nc2nc(-c3ccc(F)cc3)c(C)s2)cs1", "% Inhibition @ 10 uM": -1.11}
{"compound": "CCc1nn(CC(=O)NCc2ccc(Cl)cc2)c(=O)c2cc3sccc3n12", "% Inhibition @ 10 uM": 3.4}
{"compound": "O=C1NC(/C=C/c2ccc([N+](=O)[O-])cc2)Nc2sc3c(c21)CCCC3", "note": "(centres unmarked)", "% Inhibition @ 10 uM": -4.23}
{"compound": "O=C(CCc1ccccc1)N1CCN(c2cccc(Cl)c2)CC1", "% Inhibition @ 10 uM": -4.04}
{"compound": "Cc1csc(NC(=O)C(Cc2ccccc2)N2Cc3ccccc3C2=O)n1", "note": "(centres unmarked)", "% Inhibition @ 10 uM": 6.04}
{"compound": "Cc1ccc(CCNC(=O)c2cc(S(=O)(=O)N3CCOCC3)cn2C)cc1", "% Inhibition @ 10 uM": -1.26}
{"compound": "CCC[C@H](NC(=O)C1(NC(=O)c2cnccn2)CCCCC1)C(=O)c1nc2ccccc2o1", "% Inhibition @ 10 uM": -4.72}
{"compound": "O=C1C2ON(c3ccccc3)C(c3ccc(F)cc3)C2C(=O)N1c1ccccc1", "note": "(centres unmarked)", "% Inhibition @ 10 uM": -4.58}
{"compound": "Cc1ccc(C2=NN(CCC(=O)N3CCC4(CC3)OCCO4)C(=O)CC2)cc1", "% Inhibition @ 10 uM": -5.43}
{"compound": "Cc1ccc(CS(=O)(=O)CCC(=O)NCCN2CCC(Cc3ccccc3)CC2)cc1", "% Inhibition @ 10 uM": -3.58}
{"compound": "O=C(NCCCN1CCc2ccccc2C1)C1CCN(c2nnc(-n3cccc3)s2)CC1", "% Inhibition @ 10 uM": -2.25}
{"compound": "Cc1c(NC(=O)Cn2cnc3c(=O)n(C)c(=O)n(C)c32)cccc1-c1nc2cc(Cl)ccc2o1", "% Inhibition @ 10 uM": 0.749}
{"compound": "Nc1nnc(-c2ccc(Cn3c(-c4nonc4N)nc4ccccc43)cc2)s1", "% Inhibition @ 10 uM": -2.88}
{"compound": "Cc1nc2ncnn2c(C)c1CCC(=O)NC(C)C12CC3CC(CC(C3)C1)C2", "note": "(centres unmarked)", "% Inhibition @ 10 uM": -2.25}
{"compound": "Oc1nc(S)nc(O)c1Cc1ccccc1", "% Inhibition @ 10 uM": -3.64}
{"compound": "CCc1nnc(NC(=O)CCCOc2ccc(C(C)(C)C)cc2)s1", "% Inhibition @ 10 uM": -13.1}
{"compound": "Cc1ccc(-c2cc(-c3ccccc3)nc(N3CCN(C)CC3)n2)cc1", "% Inhibition @ 10 uM": -3.27}
{"compound": "C=CCNC(=O)c1cnn2c(C)c(Cc3ccccc3)c(C)nc12", "% Inhibition @ 10 uM": -0.733}
{"compound": "CC(C)Cn1cc(NC(=O)NC2CCCc3ccccc32)c2ccccc2c1=O", "note": "(centres unmarked)", "% Inhibition @ 10 uM": 2.09}
{"compound": "CCCCc1ccc(-c2ccc(C)cc2O)nc1", "% Inhibition @ 10 uM": -2.55}
{"compound": "CCOc1ccc(C(=O)Nc2nc(C)c(C(=O)N(C)C)s2)cc1", "% Inhibition @ 10 uM": 9.11}
{"compound": "CC(=O)c1cccc(N2C(=O)C3C4C=CC(C4)C3(C)C2=O)c1", "note": "(centres unmarked)", "% Inhibition @ 10 uM": 4.12}
{"compound": "Cc1ccc(CNC(=O)CCCn2ncn3c(cc4occc43)c2=O)cc1", "% Inhibition @ 10 uM": -3.79}
{"compound": "CC(=O)Nc1[nH]c(-c2ccccc2)cc1C(C)=O", "% Inhibition @ 10 uM": -8.03}
{"compound": "O=C(Cn1c(-c2ccccc2)c[n+]2ccsc12)c1ccc(Br)cc1", "% Inhibition @ 10 uM": -6.2}
{"compound": "COC(=O)c1sccc1S(=O)(=O)N1CCC(C(N)=O)CC1", "% Inhibition @ 10 uM": -1.74}
{"compound": "CCS(=O)(=O)N1CCC(c2nnnn2-c2ccc(C)cc2)CC1", "% Inhibition @ 10 uM": 13.8}
{"compound": "CC(C)C(=O)N1CCN(c2ccccc2NC(=O)c2cccc3ccccc23)CC1", "% Inhibition @ 10 uM": -1.44}
{"compound": "Cc1ccc(OCC(=O)Nc2nnc(S(=O)(=O)NCC3CCCO3)s2)cc1", "note": "(centres unmarked)", "% Inhibition @ 10 uM": -3.51}
{"compound": "O=C(Nc1ccccc1OC(F)F)C12CC3CC(C1)CC(n1cncn1)(C3)C2", "% Inhibition @ 10 uM": 2.08}
{"compound": "Cc1ccccc1OCC(=O)Nc1cccc2cccnc12", "% Inhibition @ 10 uM": 5.66}
{"compound": "Cc1cc(NC(=O)CSc2cn(CC(=O)N3CCCCCC3)c3ccccc23)no1", "% Inhibition @ 10 uM": -1.39}
{"compound": "O=C(Cn1cc(C(=O)C(F)(F)F)c2ccccc21)N1CCCCC1", "% Inhibition @ 10 uM": 0.475}
{"compound": "CCC(Oc1ccccc1)C(=O)Nc1nn2c(-c3ccccc3)nnc2s1", "note": "(centres unmarked)", "% Inhibition @ 10 uM": 3.92}
{"compound": "CCOC(=O)N1CCN(C(=O)/C(=C\\c2cccs2)NC(=O)c2cccs2)CC1", "% Inhibition @ 10 uM": -4.68}
{"compound": "Cc1cc(C)nc(SC(=O)c2ccc(Cl)cc2Cl)n1", "% Inhibition @ 10 uM": -5.13}
{"compound": "Cc1cc(C)cc(N(CC(=O)N2CCC(C)CC2)S(=O)(=O)c2ccccc2)c1", "% Inhibition @ 10 uM": -4.7}
{"compound": "CCCC(=O)Nc1ccc2c(c1)C(=O)N(CCC(=O)O)C2=O", "% Inhibition @ 10 uM": -0.318}
{"compound": "Cc1cccc2c(O)c(NC(=O)NCCCO)cnc12", "% Inhibition @ 10 uM": 0.401}
{"compound": "Cc1nc(=O)c(-c2ccccc2)c(C)n1-c1ccccc1O", "% Inhibition @ 10 uM": -1.66}
{"compound": "O=C(CCn1cccn1)NCc1ccc(F)cc1", "% Inhibition @ 10 uM": -3.22}
{"compound": "CC(=O)c1c(C)nc2n(Cc3ccccc3)c3ccccc3n12", "% Inhibition @ 10 uM": -1.5}
{"compound": "Cc1ccc(C)c(OCC(=O)NCc2ccco2)c1C", "% Inhibition @ 10 uM": -0.95}
{"compound": "COc1ccccc1C(=O)N/C(=C\\c1ccc(Br)cc1)C(=O)O", "% Inhibition @ 10 uM": -1.19}
{"compound": "CN1CCN(C2=Cc3ccccc3Sc3cc(F)ccc32)CC1", "% Inhibition @ 10 uM": -3.76}
{"compound": "COc1cc(/C=C(\\C#N)c2nc(-c3ccccc3)cs2)cc(OC)c1OC", "% Inhibition @ 10 uM": -4.12}
{"compound": "Cc1cccc(NS(=O)(=O)c2cc(Cl)ccc2Cl)c1C", "% Inhibition @ 10 uM": -4.91}
